# The list shows a part of the results.
# Test system: PF3D7_0420300 AP2 domain 1 (GST-tagged)
# Test: gcPBM binding intensity (ln(normalized median fluorescence intensity)); higher = stronger DNA binding
# Outline: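 In this array assay, P. falciparum DNA-binding domains with a GST tag, expressed in E. coli, were applied for 1 h to primer-extended double-stranded 36-bp intergenic genomic probes and negative controls on an Agilent 4 × 180k array. Bound protein was visualised with Alexa488 anti-GST antibody at 488 nm. Binding intensity is the highest Masliner-normalised natural-log median intensity across replicate spots of either probe orientation.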
row,Sequence,gcPBM binding intensity (ln)
1,CCAAAATACATTAAACGTACATGTCCTAATAAGATA [XGTACX_site21],9.15
2,TTGTTTTTATAAATATTATTACAATGAAAAAAAAAA [TGCATGCA_negctrl_site185],8.92
3,AAAAAAAAAAAAAAAAGTACGTATCAAAGCATCAAA [XGTACX_site880],9.42
4,AATCTGATCTTTTAAAGTACACAAAAAAAAAAAAAA [XGTACX_site115],8.74
5,AGGTTATAAATAAATACACACATACAAAAATATGAC [CACACA_site4773],9.86
6,CATATATATATATGTACACACATTAATAAAAAAAAA [CACACA_site3230],9.46
7,GTTTAACTGTTTTATACACACAATGTATACAATAAA [CACACA_site2959],9.48
8,AATGAACACCTAAAATGTACGTACAAATATATTTTA [XGTACX_site7067],9.31
9,AATGAATAAATAAACACACACACATATATAAATATG [CACACA_site6160],9.97
10,AAAACAAACAGACACACACACATATATATATATATA [CACACA_site3655],9.79
11,ATGTTTAATTTTTTTTTGTCCCTATAGAAGTGTCAA [CACACA_negctrl_site1103],8.98
12,TTTGAGTGCACATACACACAGACATACATTTAAATA [CACACA_site3403],9.55
13,ATAACCTAATAATACACACACATGAATATATAGAAT [CACACA_site963],10.1
14,TTTAAAATTTTTTTTTTTTTTTTTTTTTTTTTTTAT [TGCATGCA_negctrl_site213],8.65
15,ATATAAATATGTTCTGCACACAAATAAGTGTTTGAA [CACACA_site9291],9.33
16,TGATTCTGTCATGGTGCACACCAGAACCATTATAAA [CACACA_site1965],8.98
17,TCTTAAAATCGGAAATGAAATAAAGTTTACAATATG [TGCATGCA_negctrl_site553],9.07
18,ATATATAAATATATATGTACACACATATACATGTTG [XGTACX_site6653],9.59
19,AATTATTCTATATATTGTACATGTTTGTTTTTTTTT [XGTACX_site3130],9.7
20,TGTTTAATCACATGTTTGCACTTTCCTTTTGTAAAT [GTGCAC_site9893],9.55
21,TATGGGGAACTATAATGTACGTATTCCTCATATATA [XGTACX_site338],9.25
22,GATGATACACAGGTGTTGCACTTAAATGCAGTTCTT [GTGCAC_site9627],9.43

row,Sequence,gcPBM binding intensity (ln)
1,ATTAAAATAGAAAAAAAAAAAAAAAAAAAAAAAAAA [CACACA_negctrl_site1117],8.39
2,TTTTCAAAATGTTGTACACACAAAAAAAAAAAAAAA [CACACA_site1550],9.11
3,TAATCATTTTTAAATTGTACAATTTATATAATAAGT [XGTACX_site6081],9.09
4,TTGATATACTATGACACATGCAAATAAAACATTATA [TGCATGCA_site535],9.12
5,TTGTATTGTATATGCACACATAGAACACTTTTTTTT [CACACA_site4133],9.46
6,TAAATTTTGTTTAGCACACACACATACATACATACA [CACACA_site3155],9.84
7,TATTTTTTAAGTGAACATTTGTTATTATATTCTTAT [GTGCAC_negctrl_site172],9.16
8,TATATCTGTATCATTACACACATGTATACTTATTTG [CACACA_site6134],9.75
9,AGAAGATTAAAAATTGCACACAAAAATATATTTTCT [CACACA_site8359],9.4
10,TAATAAATAAAAACATGTACATATATACATATATGT [XGTACX_site485],9.28
11,GATATATAGGTATTTACACACAATGTGAGATCTATA [CACACA_site7575],9.58
12,AAAGACTTTTTATGAGCACACACATATATTATGGAG [CACACA_site8254],9.37
13,TTTCTATAATATATATGTACATATATAATATGTCGT [XGTACX_site3676],9.08
14,AGATAAAATAAATACACACACATAAATACGTACAAA [CACACA_site4739],10.2
15,ATGATTATACAAAATATACACACGTGGACACAAATA [CACACA_site8304],9.81
16,TGATAATAAGCATACACACACACACTAAAAAAAAAA [CACACA_site6478],10.2
17,GGTTATAACCCACATGCACACGTAAATAAATATTAT [CACACA_site5992],9.44
18,ATAAATAATAAGGTTACAACAAACACACAAAGGAAT [XGTACX_negctrl_site611],10
19,TAAAAAAAAAAGTATACACACTTCTTAATGTCAACA [CACACA_site4818],9.22
20,TGTCCAATTTATTGTGCACACCTCAAAAGTGGGTAA [CACACA_site3826],9.22
21,CTATATATTTTTCATTGTACACAAATTAAAGAAAAA [XGTACX_site8385],8.9
22,TTTTTTTATAAATTCACACAAAATATAATATTAAAA [CACACA_site4766],8.93
